In US6110895A, “Method of promoting healing in skin grafts” (University of Southern California, priority 1997, dated 2000):
Values joined by “and” are separate entries in the source; they are usually repeats but may differ in a detail not shown here. Identical values can stand only once. Part of at least one peptide drawing is inferred or uncertain, most often the ends. Some compounds share one wording; it may come from a single statement. Square brackets hold non-standard residues; d marks the D form. Ends that are not written are not given here. Peptide text beside a SMILES is read from it. Nle = CCCC[C@H](N)C(=O)O; Orn = NCCC[C@H](N)C(=O)O; Aib = CC(C)(N)C(=O)O

Legend:
[1] = tested on: full thickness dermal wounds; test: Wound closure by analogs of AII and AIII, Table 4 (Example 7); type: in vivo, Sprague Dawley rats; settings: percentage of vehicle-treated control wound, method of Example 6 (100 μg/wound, days 0-4)
Description: Female Sprague Dawley rats weighing 175-200 grams were obtained from Simonsen Laboratories (Gilroy, Calif.). On the day of surgery, rats received intramuscular ketamine/rompum anesthesia prior to preparation for surgery. The rats were shaved and scrubbed with betadine. Two 1.5×1.5 cm full thickness dermal wounds were created on the dorsal surface of each rat. Following excision of the skin, the size of the wound was outlined on a glass slide to establish the baseline wound size. The medicament was administered in 100 μl of 10% low viscosity carboxymethyl cellulose (Sigma). The p-NH2 -Phe6-AII test material was administered in a randomized fashion with all materials being tested at 100 μg/wound. Control wounds were treated with vehicle only. After administration of the materials, the rats were bandaged and allowed to recovery from anesthesia. The rats were treated with an additional 100 μg of peptide formulation on days 1-4 after surgery. On days 2, 4, 7 and 9 the area of the skin wounds were measured under methoxyflurane anesthesia. The area of the wound was determined by: (1) tracing the wound shape onto graph paper (1×1 mm squares); (2) cutting out the shape; (3) weighing the paper and comparing the weight with a 1.5×1.5 cm paper cutout; and (4) counting the number of squares on the graph paper. In addition, on days 2, 4 and 7 the area of granulation tissue was similarly determined.
Analogs of AII and AIII having the structures disclosed in Table 4 were prepared using an automated peptide synthesizer and methods familiar to those having ordinary skill in the art. Each of the analogs was tested for its ability to accelerate wound healing essentially according to the method of Example 6. Results of procedures used to determine the extent of wound closure at days 4 and 9 measured as a percentage of a vehicle-treated control wound are also presented in Table 4. Since all of the analogs were not tested during the same experimental procedure, AII was included as a positive control for each group of peptides tested. As designated below, peptide analogs are identified as analogs of AII or AIII having amino acid substitutions at positions indicated by superscripts. Thus, for example, Gly^4 -AIII is the designation for an AIII analog having a Gly residue substituted at position 4 of AIII. Results from procedures using analogs that were tested as a group are grouped together in the following Table.

skin flap [2] = test: Random flap model, autologous skin graft incorporation (Example 9); type: in vivo, Sprague Dawley rats; settings: for Viable Grafts/Total Grafts: 0.3 ml in wound bed, single dose
skin flap [3] = test: Random flap model, AII dose response (Example 10); type: in vivo, Sprague Dawley rats
living skin equivalent [4] = test: Engraftment of living skin equivalent at full thickness excision site (Example 11); type: in vivo, Swiss nude mice
living skin equivalent [5] = test: Engraftment of living skin equivalent at debrided full thickness burn site (Example 12); type: in vivo, Swiss nude/nude mice
living skin equivalent [6] = test: Living skin equivalent soaked in AII, neovascularization dose response (Example 13); type: in vivo, Swiss nude mice
[7] = tested on: full thickness dermal wounds; test: Healing of full thickness dermal wounds with AII analogs (Example 1); type: in vivo, Sprague Dawley rats; settings: for full thickness wound closure relative to vehicle-treated control: 2×2 cm wounds, 3 μg/wound (analogs 2 and 3 also 10 μg/wound) in HYDRON vehicle, FIGS. 1-2

Compound | extent of wound closure, % Control (Day 4) [1] | extent of wound closure, % Control (Day 9) [1] | also measured
CC[C@H](C)[C@H](NC(=O)[C@H](Cc1ccc(O)cc1)NC(=O)[C@@H](NC(=O)[C@H](CCCNC(=N)N)NC(=O)[C@@H](N)CC(=O)O)C(C)C)C(=O)N[C@@H](Cc1c[nH]cn1)C(=O)N1CCC[C@H]1C(=O)N[C@@H](Cc1ccccc1)C(=O)O [AII, Asp-Arg-Val-Tyr-Ile-His-Pro-Phe] | 86.1% and 84.0% and 76.6% and 71.6% and 81.6% and 75.0% and 79.0% and 81.9% | 57.6% and 64.5% and 62.5% and 62.4% and 63.8% and 39.1% and 59.3% and 65.5% | Viable Grafts/Total Grafts (skin flap [2]; 1 mg/ml AII in 10% Carboxymethyl Cellulose): 2/3; formation of necrotic tissue (skin flap [2]; 1 mg/ml AII in PBS): decreased formation of necrotic tissue; Viable Grafts/Total Grafts (skin flap [2]; 1 mg/ml AII in PBS): 0/3; grafts viable with incisions healed (skin flap [2]; 10 mg/ml AII in PBS or 1 mg/ml AII in 10% carboxymethyl cellulose): 67%; Viable Grafts/Total Grafts (skin flap [2]; 10 mg/ml AII in PBS): 2/3; efficiency of graft incorporation (skin flap [2]; AII-containing medicaments versus carriers): substantially improved the efficiency of graft incorporation; percentage of graft scabbing (skin flap [2]; AII-containing medicaments versus carriers, FIGS. 24-25): reduced; engraftment, dose response (skin flap [3]; 0.01-1 mg/ml AII in 10% carboxymethyl cellulose, 8 and 12 days): enhanced engraftment in a dose responsive manner; percentage of the flap that was viable (skin flap [3]; 8 and 12 days, FIG. 27): increased; fractional flap viability at lowest dosage (skin flap [3]; lowest dosage tested (0.01 mg/ml) versus vehicle-treated control): substantially increased the fractional flap viability; percentage of flaps completely viable (skin flap [3]; single dose 0.01-1 mg/ml AII in 10% carboxymethyl cellulose, 8 and 12 days post-surgery, FIG. 26): increased the efficiency of graft incorporation into underlying tissue; number of endothelial cells at graft interface (living skin equivalent [4]; 1 mg/ml AII soak, 7 and 9 days post-surgery, FIG. 28): increased; vessels attached to underside of graft (living skin equivalent [4]; one of two AII-treated grafts, 7 days post-surgery): numerous vessels attached to the underside; graft viability (living skin equivalent [5]; 21 days post-surgery, two other AII mice had partially contracted, nonviable grafts): one mouse that had been grafted with the living skin equivalent soaked in the AII solution before placement had a fully viable graft; incorporation of living skin equivalent at site of burn injury (living skin equivalent [5]; graft soaked 10 minutes in saline with 1 mg/ml AII): enhanced the incorporation of a living skin equivalent; concentration dependence of neovascularization effect (living skin equivalent [6]; 0.01, 0.1, 1.0 mg/ml AII): concentration-dependent; neovascularization at the graft site (living skin equivalent [6]; AII pre-treated living skin equivalent): accelerated neovascularization; number of endothelial cells at graft interface (living skin equivalent [6]; soak 0.01-1 mg/ml AII for 10 minutes, day 7, FIG. 30): increase
CCCC[C@H](NC(=O)[C@H](CCCNC(=N)N)NC(=O)[C@@H](N)CC(=O)O)C(=O)N[C@@H](Cc1ccc(O)cc1)C(=O)N[C@H](C(=O)N[C@@H](Cc1c[nH]cn1)C(=O)N1CCC[C@H]1C(=O)N[C@@H](Cc1ccccc1)C(=O)O)[C@@H](C)CC [Analog G5D39B, Asp-Arg-norLeu-Tyr-Ile-His-Pro-Phe] (H-DR[Nle]YIHPF-OH) | 81.1% | 62.5% | –
CC[C@H](C)[C@H](NC(=O)[C@H](Cc1ccc(O)cc1)NC(=O)C(C)(C)NC(=O)[C@H](CCCNC(=N)N)NC(=O)[C@@H](N)CC(=O)O)C(=O)N[C@@H](Cc1c[nH]cn1)C(=O)N1CCC[C@H]1C(=O)N[C@@H](Cc1ccccc1)C(=O)O [GSD27B, Aib^3 -AII] (H-DR[Aib]YIHPF-OH) | 83.4% | 64.4% | –
CC[C@H](C)[C@H](NC(=O)[C@@H]1CCCN1C(=O)[C@H](Cc1c[nH]cn1)NC(=O)[C@@H](NC(=O)[C@H](Cc1ccc(O)cc1)NC(=O)[C@@H](NC(=O)[C@H](CCCNC(=N)N)NC(=O)[C@@H](N)CC(=O)O)C(C)C)[C@@H](C)CC)C(=O)O [GSD28, Ile^8 -AII] | 78.9% | 54.5% | –
CC[C@H](C)[C@H](NC(=O)[C@H](Cc1ccc(O)cc1)NC(=O)[C@@H](NC(=O)[C@H](CCCN)NC(=O)[C@@H](N)CC(=O)O)C(C)C)C(=O)N[C@@H](Cc1c[nH]cn1)C(=O)N1CCC[C@H]1C(=O)N[C@@H](Cc1ccccc1)C(=O)O [GSD37B, Orn^2 -AII] (H-D[Orn]VYIHPF-OH) | 80.6% | 55.4% | –
CCCC[C@H](NC(=O)[C@@H](N)CCCNC(=N)N)C(=O)N[C@@H](Cc1ccc(O)cc1)C(=O)N[C@H](C(=O)N[C@@H](Cc1c[nH]cn1)C(=O)N1CCC[C@H]1C(=O)N[C@@H](Cc1ccccc1)C(=O)O)[C@@H](C)CC [GSD39A, Arg-norLeu-Tyr-Ile-His-Pro-Phe] (H-R[Nle]YIHPF-OH) | 73.1% | 43.8% | –
CCCC[C@H](NC(=O)[C@H](Cc1ccc(O)cc1)NC(=O)[C@@H](NC(=O)[C@@H](N)CCCNC(=N)N)C(C)C)C(=O)N[C@@H](Cc1c[nH]cn1)C(=O)N1CCC[C@H]1C(=O)N[C@@H](Cc1ccccc1)C(=O)O [GSD40A, Arg-Val-Tyr-norLeu-His-Pro-Phe] (H-RVY[Nle]HPF-OH) | 95.1% | 78.9% | –
CCCC[C@H](NC(=O)[C@H](Cc1ccc(O)cc1)NC(=O)[C@@H](NC(=O)[C@H](CCCNC(=N)N)NC(=O)[C@@H](N)CC(=O)O)C(C)C)C(=O)N[C@@H](Cc1c[nH]cn1)C(=O)N1CCC[C@H]1C(=O)N[C@@H](Cc1ccccc1)C(=O)O [GSD40B, Asp-Arg-Val-Tyr-norLeu-His-Pro-Phe] (H-DRVY[Nle]HPF-OH) | 75.0% | 48.9% | –
CC[C@H](C)[C@H](NC(=O)[C@H](Cc1ccc(O)cc1)NC(=O)[C@@H](NC(=O)[C@H](CCCNC(=N)N)NC(=O)C[C@H](N)C(=O)O)C(C)C)C(=O)N[C@@H](Cc1c[nH]cn1)C(=O)N1CCC[C@H]1C(=O)N[C@@H](Cc1ccccc1)C(=O)O [β-Asp^1 -AII] | 101.3% | 100% | –
APGDRIYVHPF [Analog 3, Ala-Pro-Gly-Asp-Arg-Ile-Tyr-Val-His-Pro-Phe] | – | – | full thickness wound closure relative to vehicle-treated control [7]: substantially accelerated
DAVYIHPF [GSD30B, Ala^2 -AII] | 93.4% | 43.8% | –
DRGYIHPF [GSD25B, Gly^3 -AII] | 86.4% | 59.4% | –
DRLYIHPF [GSD26B, Leu^3 -AII] | 90.5% | 58.6% | –
DRPYIHPF [GSD24B, Asp-Arg-Pro-Tyr-Ile-His-Pro-Phe] | 82.6% | 43.4% | –
DRVYAHPF [GSD22B, Ala^5 -AII] | 88.1% | 55.4% | –
DRVYGHPF [GSD21B, Gly^5 -AII] | 91.1% | 60.3% | –
DRVYVHPF [Analog 1, Asp-Arg-Val-Tyr-Val-His-Pro-Phe] | – | – | full thickness wound closure relative to vehicle-treated control [7]: substantially accelerated
DRYYIHPF [GSD29B, Tyr^3 -AII] | 83.6% | 62.7% | –
GRVYIHPF [Analog G5D36, Gly^1 -AII] | 80.2% | 65.9% | –
NRVYVHPF [Analog 2, Asn-Arg-Val-Tyr-Val-His-Pro-Phe] | – | – | full thickness wound closure relative to vehicle-treated control [7]: substantially accelerated; wound healing, 10 μg versus 3 μg dosage ([7]; FIG. 3 (analog 2)): 10 μg dosage accelerated wound healing more effectively than the 3 μg dosage
PRVYIHPF [GSD32B, Pro-Arg-Val-Tyr-Ile-His-Pro-Phe] | 76.7% | 56.4% | –
RPYIHPF [GSD24A, Pro^2 -AIII] | 79.4% | 47.6% | –
RVYAHPF [GSD22A, Arg-Val-Tyr-Ala-His-Pro-Phe] | 93.0% | 36.0% | –
RVYGHPF [GSD21A, Arg-Val-Tyr-Gly-His-Pro-Phe] | 73.3% | 41.6% | –
